Data as given in PubChem BioAssay AID1476 (National Center for Advancing Translational Sciences (NCATS), 2009).
Hit rate of the full screen: of about 200,000 compounds, about 4,500 (2.2%) were called active. This list was built around the results that the source calls inconclusive (neither active nor inactive); the mix of calls is not that of the screen. Calls come from the whole dose curve; as a rule, active = well fitted inhibition curve with a large enough effect; inconclusive = small, poorly fitted or top-dose-only effect, or effect the other way; inactive = flat fitted curve, though single readings scatter. A potency beside an inconclusive call is a rough fit, not a confirmed value.

Molecular target: Cruzipain (Trypanosoma cruzi) (UniProt P25779)
Assay: qHTS Assay for Promiscuous and Specific Inhibitors of Cruzain (without detergent); note: nearly all actives have a fitted effect of over 40% in size;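 for max response, negative = inhibition: plate controls were enzyme without inhibitor for no effect and buffer without enzyme for full effect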
Details: purified cruzain, Z-FR-AMC fluorescence, no detergent
Summary of the method: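 Purified cruzain at 1.5 nM, pre-incubated 15 min with compound at room temperature in 100 mM sodium acetate pH 5.5, 5 mM DTT, 0.00005% Triton X-100. Reaction started with 2 uM Z-FR-AMC; AMC fluorescence increase over 60 s gives rate.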
Potency is the fitted concentration of half-maximal effect; tags give direction and shape of the fitted curve.

Chain of UniProt P25779 (P25779 whole entry, looked up): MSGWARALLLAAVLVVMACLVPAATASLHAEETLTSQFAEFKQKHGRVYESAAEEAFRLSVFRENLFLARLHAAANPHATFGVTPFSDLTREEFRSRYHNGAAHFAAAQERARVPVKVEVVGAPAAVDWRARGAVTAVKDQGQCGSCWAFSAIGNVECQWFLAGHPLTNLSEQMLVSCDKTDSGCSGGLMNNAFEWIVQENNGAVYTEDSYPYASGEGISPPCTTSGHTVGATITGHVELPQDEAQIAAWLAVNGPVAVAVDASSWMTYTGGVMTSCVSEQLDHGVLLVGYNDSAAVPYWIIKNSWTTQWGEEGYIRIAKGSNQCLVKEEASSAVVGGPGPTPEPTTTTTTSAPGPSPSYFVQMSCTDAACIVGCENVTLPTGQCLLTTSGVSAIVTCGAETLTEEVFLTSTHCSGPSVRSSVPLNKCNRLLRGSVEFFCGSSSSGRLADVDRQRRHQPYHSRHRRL

| SMILES | max response, negative = inhibition | Potency |
| --- | --- | --- |
| CC(C)CN(C)c1nc(N)c(C(=O)N=C(N)N)nc1Cl | inactive: 5.3% |  |
| CCOc1cc(CNS(=O)(=O)c2ccc3c(c2)C(C)(C)C(=O)N3)cc(OCC)c1OCC | inactive: 6.59% |  |
| COc1ccc(N2CCN(C(=O)c3cccn3-c3nnc(N4CCCC4)s3)CC2)cc1 | inactive: 1.68% |  |
| CCc1nn(CCCC(=O)NCc2ccc(OC(C)C)cc2)c(=O)c2cc3occc3n12 |  | inconclusive: 31.6 µM [activator, single point] |
| CCN(CC)S(=O)(=O)c1ccc2c(c1)N(CC(=O)N1CCN(c3cccc(C)c3C)CC1)C(=O)CO2 |  | inconclusive: 20 µM [activator, partial curve] |
| CCN1CCN(c2nc3ccccc3nc2C(C#N)S(=O)(=O)c2ccc(C)cc2)CC1 (stereo not drawn) |  | inconclusive: 31.6 µM [activator, single point] |
| O=C(/C=C\NCC(=O)c1ccccc1)c1ccc2ccccc2c1 |  | active: 31.6 µM |
| Cc1cc(C(c2ccc(C)o2)c2ccc(C)o2)c(O)c([N+](=O)[O-])c1 |  | inconclusive: 20 µM [inhibitor, single point] |
| Cc1c(CNC2CCCCC2)c(C(=O)O)c(C)n1Cc1ccc(Cl)cc1 | inactive: 7.21% |  |
| CCC1CCCCN1C(=O)c1c[nH]c2ccc(S(=O)(=O)N(C)c3ccc(Cl)cc3)cc2c1=O (stereo not drawn) |  | inconclusive: 39.8 µM [activator, single point] |
| COc1ccc(/C=C/C(=O)Nc2ccc(-n3nncc3-c3ccc(OC)c(OC)c3)cc2)cc1OC |  | inconclusive: 15.8 µM [activator, partial curve] |
| CCOC(=O)C1CCN(C(=O)Cn2nc(CC)n3c(cc4sccc43)c2=O)CC1 | inactive: 0.558% |  |
| COc1cccc(CNC(=O)CSC2=Nc3ccccc3N=C(c3ccc(F)cc3)C2)c1 | inactive: -8.71% |  |
| COc1ccc(C(=O)N2CCN(c3nc4cc(C)ccc4cc3C#N)CC2)c(OC)c1 |  | inconclusive: 31.6 µM [activator, single point] |
| COC(=O)c1ccc(C(=O)OC)c(NC(=O)CN(c2ccccc2)S(=O)(=O)N(C)C)c1 |  | inconclusive: 31.6 µM [activator, single point] |
| Cc1ccc(NC(=O)Nc2nnc(N3CCCC3)s2)cc1C |  | inconclusive: 31.6 µM [activator, single point] |
| CCOC(=O)c1[nH]c(C)c(C(=O)N2CCN(c3ccc(F)cc3)CC2)c1C |  | inconclusive: 7.94 µM [activator, single point] |
| Cc1nn2c(=O)cc(COC(=O)c3cccc(NC(=O)COc4ccccc4C)c3)nc2s1 | inactive: 16.1% |  |
| CCOCCCn1c(=N)c(C(=O)NCc2cccnc2)cc2c(=O)n3ccccc3nc21 |  | inconclusive: 39.8 µM [inhibitor, single point] |
| CCN(CC)C(=O)c1ccc2c(c1)N(Cc1ccc(C(F)(F)F)cc1)C(=O)c1ccccc1S2 |  | inconclusive: 6.31 µM [activator, single point] |
| O=C(Nc1ccn(Cc2c(F)c(F)cc(F)c2F)n1)c1ccc(COc2cc(Cl)ccc2Cl)o1 |  | inconclusive: 39.8 µM [inhibitor, single point] |

| SMILES | max response, negative = inhibition | Potency |
| --- | --- | --- |
| Cc1nc(NC(=O)c2ccc(F)cc2)sc1C(=O)Nc1ccc2c(c1)CCC2 |  | inconclusive: 39.8 µM [inhibitor, single point] |
| Cc1c(C(=O)N2CCC(C)CC2)c(S(=O)(=O)N(Cc2ccccc2)C(C)(C)C)c(C)n1C |  | inconclusive: 25.1 µM [activator, single point] |
| CC(=O)N[C@@H]1CCSC1=O | inactive: -5.45% |  |
| Cc1cccc(NC(=O)Cn2nnc(C(=O)NCc3cccs3)c2N)c1C |  | inconclusive: 31.6 µM [inhibitor, single point] |
| CCOC(=O)/C(C#N)=C1/SC(CC)C(=O)N1c1ccc(C)cc1 (stereo not drawn) | inactive: -0.0042% |  |
| CC1CCC(NC(=O)c2cc3c(=O)n(C)c4ccccc4c3n2C)CC1 (stereo not drawn) |  | inconclusive: 31.6 µM [activator, partial curve] |
| CCCc1nc2ccc(NC(=O)NCCC(=O)OCC)cc2c(=O)n1Cc1cccc(Cl)c1 |  | inconclusive: 39.8 µM [activator, single point] |
| CCc1cc(C(=O)N=Nc2c(O)[nH]c3ccc([N+](=O)[O-])cc23)c2ccccc2n1 | inactive: -26.6% |  |
| COc1cc(NC(=O)N2CCc3c(sc4c3CCCC4)C2c2ccccc2)cc(OC)c1OC (stereo not drawn) |  | inconclusive: 25.1 µM [activator, single point] |
| Cc1cc(C)c(-c2n[nH]c3c2C(c2ccccc2F)N(Cc2ccco2)C3=O)c(O)c1 (stereo not drawn) |  | inconclusive: 39.8 µM [inhibitor, single point] |
| Cc1ccc(C(=O)OC[C@H]2O[C@H](Cl)C[C@@H]2OC(=O)c2ccc(C)cc2)cc1 | inactive: 9.31% |  |
| COc1ccc(C(=O)Nc2cccc(-c3cc4ccccc4oc3=O)c2)cc1[N+](=O)[O-] |  | active: 10 µM |
| CC(C)C(=O)Nc1ccc(NC(=O)c2cccc(F)c2)cn1 | inactive: -5.88% |  |
| COc1ccc(CNC(=O)CN2C(=O)CC(c3ccc(C)c(C)c3)=Nc3ccccc32)cc1 | inactive: -10.3% |  |
| CC(C)(C)c1ccc(OC(=O)c2ccc3snnc3c2)cc1 |  | inconclusive: 31.6 µM [inhibitor, single point] |
| CCC(C)(C)NC(=O)C(c1ccc(F)cc1)N(Cc1ccco1)C(=O)CCC(=O)Nc1ccccn1 (stereo not drawn) |  | inconclusive: 25.1 µM [activator, single point] |
| O=[N+]([O-])c1ccc2nc(-c3ccc(Cl)cc3)n(OCc3ccccc3)c2c1 |  | inconclusive: 31.6 µM [inhibitor, single point] |
| Cc1ccc(NC(=O)c2sc3nc(-c4cccs4)ccc3c2N)cc1F |  | inconclusive: 25.1 µM [inhibitor, single point] |
| COc1ccc(-c2cc(C(F)(F)F)nc(SCCC(=O)Nc3ccc(OC)c(OC)c3)n2)cc1 |  | inconclusive: 20 µM [activator, partial curve] |
| Fc1ccc(/C=C2\CCCC3=C2NC(=S)NC3c2ccc(F)cc2)cc1 (stereo not drawn) |  | inconclusive: 25.1 µM [inhibitor, single point] |
| O=S(=O)(Nc1cccc(-c2ccc(N3CCCCCC3)nn2)c1)c1ccc(F)cc1 |  | inconclusive: 39.8 µM [inhibitor, single point] |

| SMILES | max response, negative = inhibition | Potency |
| --- | --- | --- |
| CCOC(=O)c1cnc(SC)nc1Oc1cccc(NS(=O)(=O)c2ccc(C)cc2)c1 |  | inconclusive: 31.6 µM [inhibitor, single point] |
| CCOC(=O)N1CCN(C2CC(=O)N(c3ccc(Cl)c(Cl)c3)C2=O)CC1 (stereo not drawn) |  | inconclusive: 25.1 µM [activator, single point] |
| COC(=O)c1cc(COC(=O)c2ccc(OC)c(S(=O)(=O)N3CCCC3)c2)oc1C |  | inconclusive: 31.6 µM [activator, single point] |
| CCN=C1S/C(=C\c2cn(C(C)=O)nc2-c2ccccc2)C(=O)N1CC |  | inconclusive: 25.1 µM [activator, single point] |
| CCOc1cc(NC(=O)c2ccccc2C)c(OCC)cc1NC(=O)C1=Cc2ccccc2OC1 |  | inconclusive: 39.8 µM [inhibitor, single point] |
| CCc1ccccc1NC(=O)Cn1c(=O)n(CCCS(=O)(=O)C2CCCCC2)c(=O)c2ccccc21 | inactive: -12.6% |  |
| O=C(Cn1c(=O)c2ccccc2n(CC(=O)Nc2ccc(Cl)cc2)c1=O)NCCc1ccccc1 |  | active: 12.6 µM |
| CC(=O)Nc1ccc(NC(=O)C(C)OC(=O)/C=C/c2cn(-c3ccccc3)nc2-c2cccnc2)cc1 (stereo not drawn) |  | inconclusive: 3.16 µM [activator, single point] |
| CCc1ccc(-n2nc3ccc(NC(=O)c4ccc5c(c4)OCO5)cc3n2)cc1 |  | active: 10 µM |
| COc1ccc(NC(=O)CCCn2c(=O)c3cccn3c3ccccc32)c(OC)c1 |  | inconclusive: 25.1 µM [activator, partial curve] |
| N#CC(C(=O)Nc1cccc(Cl)c1)=C1Nc2ccccc2N1 |  | inconclusive: 39.8 µM [inhibitor, single point] |
| Cc1ccc(C)n1-c1c(C(=O)NCC(C)c2ccccc2)sc2ncccc12 (stereo not drawn) | inactive: 0.792% |  |
| O=C1NC(=O)N(CCC2=CCCCC2)C(=O)/C1=C/c1ccc(O)cc1 | inactive: 0.725% |  |
| Cn1cnc([N+](=O)[O-])c1Sc1ncccc1N | inactive: -8.53% |  |
| Cc1c(Nc2nc3ccccc3nc2NS(=O)(=O)c2cccc(Cl)c2)c(=O)n(-c2ccccc2)n1C |  | inconclusive: 39.8 µM [activator, single point] |
| CCOC(=O)c1cccc(NC(=O)Cn2c(CC(=O)NC)nc3ccccc32)c1 |  | inconclusive: 31.6 µM [activator, single point] |
| CC(C)CN1CCC2(CC1)CCN(C(=O)c1csnn1)CC2 |  | inconclusive: 31.6 µM [inhibitor, single point] |
| CCC1(C(=O)c2ccccc2)C2c3cc(Br)ccc3OC(=O)C21C(=O)N1CCOCC1 (stereo not drawn) |  | inconclusive: 39.8 µM [activator, single point] |
| Cc1ccc(Cl)cc1-n1c(=O)c2sc3ccccc3c2n(CC(=O)NC2CCCCC2)c1=O |  | inconclusive: 15.8 µM [inhibitor, partial curve] |
| COc1cccc(CNC(=O)CN2C(=O)CSc3c2c(C)nn3-c2ccccc2)c1OC |  | inconclusive: 25.1 µM [activator, single point] |
| CCOc1ccc(OCc2nnc(SCC(=O)NC3CCS(=O)(=O)C3)n2-c2ccc(Cl)cc2)cc1 (stereo not drawn) |  | inconclusive: 39.8 µM [activator, single point] |
